Assay results taken from the supplement of paper PMC3334620.
In all, about 33,000 sequences were measured (“E-score (-0.5 to 0.5)”: median about -0.035, highest 2% from about 0.34 on). The list shows a part of the results.

molecular target: T1, Mot3 (UniProt P54785); assay: PBM E-score (8-mer binding enrichment) (E-score (-0.5 to 0.5)); higher = stronger / more preferred TF binding; most listed sequences are background and not binding sites; conditions: protein concentration: 200 nM; construct: GST-full length
T1 sequence: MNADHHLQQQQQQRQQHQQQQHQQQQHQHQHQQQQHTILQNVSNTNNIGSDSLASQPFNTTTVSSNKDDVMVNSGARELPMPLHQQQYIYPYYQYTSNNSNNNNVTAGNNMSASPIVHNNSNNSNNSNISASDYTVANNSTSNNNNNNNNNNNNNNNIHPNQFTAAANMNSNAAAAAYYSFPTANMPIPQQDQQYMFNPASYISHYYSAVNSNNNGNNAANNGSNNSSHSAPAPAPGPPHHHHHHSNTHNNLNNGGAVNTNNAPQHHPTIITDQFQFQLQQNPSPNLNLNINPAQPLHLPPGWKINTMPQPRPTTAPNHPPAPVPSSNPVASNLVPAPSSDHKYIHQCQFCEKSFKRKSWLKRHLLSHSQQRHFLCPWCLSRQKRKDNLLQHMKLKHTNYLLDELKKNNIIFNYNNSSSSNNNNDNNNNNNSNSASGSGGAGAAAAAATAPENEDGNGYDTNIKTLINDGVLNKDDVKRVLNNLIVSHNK
Outline: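 Universal all-10-mer Agilent arrays, fresh or stripped once, were converted to double-stranded form by primer extension. GST-tagged yeast transcription factors from PURExpress in vitro transcription/translation, full-length or DNA-binding domain only, were applied at about 100-200 nM and detected with fluorescent anti-GST. After masliner normalisation, the Universal PBM Analysis Suite scored each ungapped eight-base word together with its reverse complement by E-score.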

Row | Sequence | PBM E-score
1 | GATTCCTA | 0.0242
2 | TACGAGCA | -0.0744
3 | CGCTACCA | -0.19
4 | AAACGAAC | 0.153
5 | GGAGATGA | 0.109
6 | GGTGATGA | -0.179
7 | CAACACCA | 0.123
8 | AACCAGCG | -0.132
9 | AGGGATAC | -0.0692
10 | CATTTTGC | -0.0152
11 | CATCAACC | 0.0442
12 | GGTCAACA | 0.103
13 | ACAAACAC | 0.156
14 | GTTGCTGA | 0.0332
15 | CCTTTTCC | 0.155
16 | CATATGTA | 0.318
17 | ATAGAGCA | 0.0372
18 | GTCAGGTA | 0.221
19 | GTATGTGA | 0.0776
20 | CGTAAACA | 0.292
21 | CTGTCCTC | -0.252
22 | GACGTAGC | -0.144
23 | ACGCTACG | 0.109
24 | CTTCATTA | 0.0663
25 | ATATTCTA | 0.0937

Row | Sequence | PBM E-score
26 | CTACTTCC | -0.0353
27 | TAGTGATA | -0.0575
28 | CGAGGTAC | -0.172
29 | AAATGGGC | -0.0266
30 | GGACCAAC | 0.0293
31 | CGACATGA | 0.269
32 | TAGCTTCA | -0.181
33 | AGCTGACG | -0.164
34 | GTGCATTA | 0.255
35 | GCAGCCTA | -0.0663
36 | TGTATACA | 0.332
37 | CGAATCCA | -0.0729
38 | ATTTAAGC | 0.0721
39 | AACATCGG | 0.0858
40 | AATAAGGG | 0.0357
41 | CTATCCAA | -0.169
42 | ACACCCAG | 0.148
43 | TCCCTTCA | -0.168
44 | AAACATTG | 0.152
45 | AGTAATTC | 0.203
46 | AGTCGAGC | -0.18
47 | AGAGAATA | -0.0675
48 | GGCACCTA | 0.357
49 | AGCATCTA | 0.0253
50 | CACATCGG | -0.129

Row | Sequence | PBM E-score
51 | AAAGTACA | 0.184
52 | ACTTTGAT | -0.0322
53 | GAGTGTTA | 0.125
54 | GGTGCTGA | -0.127
55 | AAAAATAG | 0.13
56 | AATGGTAC | -0.0386
57 | AGCCGTCC | -0.252
58 | ACATCCAC | 0.0696
59 | CTATGCGC | -0.069
60 | AGCTCCTA | -0.0687
61 | TCTCGCAA | -0.213
62 | GAGCATCA | -0.269
63 | GAGGGCTA | -0.288
64 | TCTGATCA | -0.153
65 | AGTAAGCA | -0.0219
66 | CAACCTTC | 0.0205
67 | GCTTTTCC | -0.0299
68 | AGCCCACT | -0.263
69 | ACCCGATA | -0.16
70 | CGGCGCGA | -0.0328
71 | CCACACAA | 0.11
72 | CGTGGTGA | -0.162
73 | ACTAGCAA | 0.0199
74 | CATCCAGA | -0.215
75 | GTCGTAGA | -0.0498

Row | Sequence | PBM E-score
76 | AGCCCCCT | -0.311
77 | GCTGGTAC | -0.124
78 | CCACGCCA | 0.0519
79 | CTTGTAGC | 0.0944
80 | ACGCGGAC | 0.113
81 | GGCACTAA | 0.339
82 | CGGCAAGA | -0.115
83 | ACGGTGCT | -0.255
84 | CCGGGTCG | -0.102
85 | CGACGCGA | -0.113
86 | GGCTCAGA | -0.0655
87 | GGCATCCC | -0.0611
88 | ACCGGATG | -0.129
89 | AGGATGAT | 0.0239
90 | CAGTCGCG | -0.209
91 | GGACACAA | 0.0871
92 | CCTACCAC | 0.104
93 | ATAGCGGG | -0.113
94 | CATCATAG | -0.056
95 | GGATGTCA | 0.136
96 | CCGTGAGA | -0.219
97 | CTCTGCTA | -0.266
98 | ACGCAGTA | 0.0934
99 | ATCTTGCG | -0.27
100 | ATGCTCAA | -0.152

Row | Sequence | PBM E-score
101 | CACGTTTC | 0.22
102 | ATCACTGG | -0.0561
103 | GTGTTAAC | 0.352
104 | TCGTAGCA | -0.0339
105 | CGCCCACC | -0.177
106 | TATAGTGA | -0.156
107 | ACTTAAAT | 0.0718
108 | ACTGTAAG | 0.0605
109 | GCCCTACA | -0.0323
110 | ACTTAGAC | 0.103
111 | ATAAAGAT | 0.0679
112 | AGCTTGTA | 0.286
113 | GGAGAGAC | -0.226
114 | ATGGGAAC | -0.173
115 | CCCTATCG | -0.125
116 | ATTCCGAA | -0.0341
117 | CACGGAAC | 0.0699
118 | CGTCCTTC | -0.126
119 | TCTAGCAA | 0.0164
120 | CGTATAGA | -0.0185
121 | AGAAAGGC | 0.222
122 | GCATCTAA | -0.0691
123 | ACTTAGTC | -0.0941
124 | CTATAAGC | 0.09
125 | CAGGTACG | 0.409

Row | Sequence | PBM E-score
126 | CGCAATCA | 0.108
127 | AAGAAAAT | 0.148
128 | CATGCGGG | -0.167
129 | AGGCGGGA | -0.137
130 | CAAGCGTC | -0.0912
131 | ATGGCTAC | 0.00372
132 | GACTACTA | 0.103
133 | GAGACATC | -0.261
134 | GATAAGAC | -0.133
135 | GTAACCAA | 0.00785
136 | ACTTTCAA | 0.0926
137 | GACGTAAA | 0.248
138 | GCCTGCGC | 0.194
139 | ACACCGGA | 0.0203
140 | GAAGGGCC | -0.151
141 | GTCCAATA | -0.0665
142 | GAGACGCA | -0.00287
143 | GCTGCGTA | 0.204
144 | CAGGTGTA | 0.15
145 | GCGCGGAA | -0.231
146 | CAGTGAAC | 0.0148
147 | CATTGCCA | 0.0689
148 | CCACTCCA | -0.215
149 | CGAGATCA | -0.107
150 | CTTCGGGA | -0.19

Row | Sequence | PBM E-score
151 | CCGCGTGA | 0.00197
152 | TCAAGCAA | -0.0561
153 | AGCCGACG | -0.153
154 | CCATTCTA | -0.0781
155 | AGTACCTG | 0.378
156 | ACGCGGCT | 0.117
157 | AGCTACAT | 0.145
158 | CGAAAATC | 0.0592
159 | TATCGTCA | 0.00747
160 | ACTTCGTG | 0.0558
161 | GATCCGCA | -0.296
162 | CCCGCATC | -0.225
163 | CCAGGGTC | -0.296
164 | AGGCTGTC | -0.15
165 | TACGGCAA | 0.0266
166 | CCTGACAA | 0.0407
167 | CGAACGAC | -0.144
168 | AAGCGATT | -0.0463
169 | CCATAGTC | -0.141
170 | ACAATGGT | -0.058
171 | GAATGGTC | -0.201
172 | CCCGTCCA | -0.115
